Assay results published in PubChem BioAssay AID686979 (National Center for Advancing Translational Sciences (NCATS), 2013).
About 50,000 (12%) of roughly 420,000 compounds were called active. Inconclusive results, whose numbers are uncertain, are shown with a selection of clear calls. Calls come from the whole dose curve; as a rule, active = well fitted inhibition curve with a large enough effect; inconclusive = small, poorly fitted or top-dose-only effect; inactive = flat fitted curve, though single readings scatter. No potency is given beside an inconclusive call; the fits are too rough. Where a SMILES comes first, the peptide text is derived from it. [ ]: non-standard residue; d: D form. The star is where a group is joined. ξ: configuration not given here. Cbz = O=C(OCc1ccccc1)*; ξA = CC(N)C(=O)O

Experiment: qHTS for Inhibitors of human tyrosyl-DNA phosphodiesterase 1 (TDP1): qHTS in cells in presence of CPT; note: nearly all actives have a fitted effect of over 55% in size
Details: chicken DT40 Tdp1-/-;hTDP1 cells + 20 nM CPT, ATP luminescence, 48 h; activity change, negative = growth inhibition: at 46.2 µM (top of the series) unless noted
How it was run: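 Chicken DT40 Tdp1-/- cells stably complemented with human TDP1 were seeded at 400 cells/well in medium containing 20 nM camptothecin, exposed to pin-transferred compounds, and grown at 37 °C for at least 48 hr. Viability was read as ATP luminescence.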
% is set by controls: 0 for no effect and ±100 for the full control effect; potency is the fitted concentration of half-maximal effect; tags give direction and shape of the fitted curve.

SMILES	Potency	activity change, negative = growth inhibition
CN(O)/C=C/C(=O)c1ccc(Br)cc1	active: 16.4 µM	
O=C1C2CCCN2C(=S)N1C1CCCCC1 (configuration not stated)	inconclusive [inhibitor, single point]	
O=C(Cn1c(NCCCO)nc2ccccc21)c1ccco1		inactive: -30.6%
CC12CCC(C(=NO)C1=O)C2(C)C (configuration not stated)		inactive: -3.71%
O=C1NC[C@H](Cc2ccc(O)cc2)N(C[C@@H]2CCCN2C[C@H](Cc2ccccc2)N2C[C@H](Cc3ccccc3)N(CC3CCCCCC3)C(=O)C2=O)C1=O	inconclusive [inhibitor, single point]	
Cc1ccc(N2CC(C(=O)OCC(=O)Nc3ccccc3F)CC2=O)cc1 (configuration not stated)		inactive: -0.427%
CCCN=Cc1ccc(O)cc1		inactive: 4.24%
O=C(CNS(=O)(=O)c1ccccc1)Nc1ccc2c(c1)OCO2		inconclusive: -35.8% [inhibitor]
CCCCC(=O)Nc1cccc(NC(=O)c2cccnc2Cl)c1		inactive: -5.72%
COc1ccccc1-c1cc(C(=O)N/N=C/c2cccs2)c2ccccc2n1	inconclusive [inhibitor, partial curve]	
Cc1ccc(-n2nc(-c3ccc(F)cc3)c3cnc4cc5c(cc4c32)OCO5)cc1C		inactive: 8.47%
CCOC(=O)c1cnn(-c2ccccc2)c1-c1ccncc1	inconclusive [inhibitor, partial curve]	
O=C(CCC1CCCCC1)Nc1ncn[nH]1		inconclusive: -32.2% [inhibitor]
CCOC(=O)C1(Cc2ccc(OC)cc2)CCN(C(=O)CCN2CCCC2=O)CC1		inactive: -10.8%
COc1ccc(NC(=O)c2oc3ccc(S(=O)(=O)N(C)C4CCCCC4)cc3c2C)cc1Cl	active: 9.2 µM	
CC(C)OCCCNC(=O)Cn1ccc2cc(S(=O)(=O)N3CCCCC3)ccc21	inconclusive [inhibitor, single point]	
CCOc1ccc2nc(NS(=O)(=O)Cc3ccccc3)sc2c1	active: 3.26 µM	
CC(C)N1CCN(Cc2ccccc2-c2ccco2)CC1CCO (configuration not stated)	inconclusive [inhibitor, single point]	
CC(=O)Nc1cc2c3c(c1)CC(=O)N3CCC2		inactive: -0.0503%
Cc1ccc(Cl)cc1N1CCN(C(=O)CCSCc2ccccc2F)CC1	inconclusive [inhibitor, single point]	
O=[N+]([O-])c1nn(-c2ccc3c(c2)OCCO3)n(O)c1=NC1CCCCC1	active: 20.6 µM	
Cc1cccc(-c2nc3ccccc3c(=O)n2NC(=O)/C=C/c2ccc([N+](=O)[O-])cc2)c1		inactive: -4.53%
COCCCn1c(-c2cccc(Cl)c2)nc2c1c(=O)[nH]c(=O)n2Cc1ccccc1	inconclusive [inhibitor, single point]	
CSc1nn(CCc2ccncc2)c(=S)s1	inconclusive [inhibitor, single point]	

SMILES	Potency	activity change, negative = growth inhibition
CCOC(=O)[C@]12CCCC=C1N(CCC1=CCCCC1)C(=O)[C@H](CC(=O)N1CCCCC1)C2	active: 7.31 µM	
CCCC(=O)N1N=C(c2ccccc2)CC1c1cn(C)c2ccccc12 (configuration not stated)	inconclusive [inhibitor, single point]	
COc1cc(C(=O)N/N=C/c2ccc3c(c2)c2ccccc2n3C)ccc1O	inconclusive [inhibitor, single point]	
COc1ccc(S(=O)(=O)N(CC(=O)N2CCOCC2)c2cc(Cl)ccc2OC)cc1OC		inactive: -17.8%
COC(=O)CNC(=O)C(C)NC(=O)CNC(=O)OCc1ccccc1 (stereo not drawn) (Cbz-Gly-[ξA]-Gly-OMe)	inconclusive [inhibitor, full curve, poor fit]	
Cc1cccc(C)c1NC(=O)C1c2ccccc2OCC(=O)N1CCCN1CCOCC1 (configuration not stated)		inactive: -22.3%
Nc1[nH]n2c(=O)cc(-c3ccccc3)nc2c1N=Nc1ccccc1	active: 3.26 µM	
O=C(CCCN1C(=O)/C(=C/c2ccccc2Cl)SC1=S)NNC(=O)c1ccc(Cl)cc1Cl	inconclusive [inhibitor, partial curve, poor fit]	
CCOC(=O)c1cc(-c2ccccc2)nc2nc(N3CCCCC3)sc12	inconclusive [inhibitor, single point]	
COc1cccc(C2=CC(c3ccccc3F)n3ncc(C(=O)Nc4ccc(C)cc4)c3N2)c1 (configuration not stated)	inconclusive [inhibitor, single point]	
Cc1cc2c(=O)n(C)c(SCC(=O)Nc3ccc(F)cc3)nc2s1		inactive: -22.6%
CC(C)(C)n1nnnc1C(c1ccccc1)N1CCN(c2ccc(C(F)(F)F)cn2)CC1 (configuration not stated)	inconclusive [inhibitor, single point]	
Cc1cc(C(=O)OCC(=O)N2CC(C)OC(C)C2)c(C)n1-c1ccccc1 (configuration not stated)	inconclusive [inhibitor, partial curve, poor fit]	
O=C1CCCCC1Sc1nnc(-c2ccc3c(c2)OCO3)o1 (configuration not stated)		inactive: -23.3%
Cc1cccc(-n2ccnc2CN2CCN(C(C)C)C(CCO)C2)c1 (configuration not stated)		inactive: -2.04%
Cc1cc(C)n(Cc2cc(C(=O)O)c3ccccc3n2)n1		inactive: 24.9%
CCOC(=O)C1(Cc2cccc(Cl)c2)CCCN(C2CCN(C(C)=O)CC2)C1 (configuration not stated)	inconclusive [inhibitor, single point]	
NC(=O)N/N=C\c1cccs1		inactive: -2.34%
OCc1nnn(-c2cccc(C(F)(F)F)c2)c1CO		inactive: -12.9%
CN(C)c1ccc(CN(CC2CCCO2)C(=O)c2cc3ccccc3o2)cc1 (configuration not stated)	active: 18.4 µM	
COc1ccc(/C=N/N2CCN(Cc3ccc(C)cc3)CC2)cc1Br		inactive: -21.2%
CCC(=O)Nc1ccc(CC)cc1-c1nc2ccccc2n(CC(=O)Nc2cccc(OC)c2)c1=O	inconclusive [inhibitor, single point]	
Cc1cc(C)cc(-n2ccnc(NCCc3ccccc3)c2=O)c1	inconclusive [inhibitor, single point]	
CC1Sc2ccc(C(=O)N3CCCC(C(F)(F)F)C3)cc2NC1=O (configuration not stated)	inconclusive [inhibitor, partial curve]	

SMILES	Potency	activity change, negative = growth inhibition
NNC(=S)Nc1ccc(OC(F)(F)F)cc1	inconclusive [inhibitor, single point]	
Cc1ccc(C)c(NC(=S)NCCSc2ccc(Cl)cc2)c1	active: 20.6 µM	
Nc1nc2c(nc(Cl)n2C2OC(CO)C(O)C2O)c(=O)[nH]1 (configuration not stated)	inconclusive [inhibitor, single point]	
Cc1sc(NC(=O)c2ccco2)c(C(c2cccnc2)N2CCN(c3ccc(F)cc3)CC2)c1C (configuration not stated)	active: 1.84 µM	
COC(=O)c1ccccc1NC(=S)N(Cc1ccc2c(c1)OCO2)Cc1cc2cc(OC)ccc2[nH]c1=O	active: 9.2 µM	
COc1ccc(OC)c(-c2nc3cc4ccccc4cc3nc2-c2ccccc2)c1	inconclusive [inhibitor, partial curve, poor fit]	
CCN(c1ccc(NC(=O)c2ccc(N3CCCC3=O)cc2)cc1)C(C)C	inconclusive [inhibitor, single point]	
CCc1cccc(NC(=S)N2CCC(c3ccccc3)C2)c1 (configuration not stated)	inconclusive [inhibitor, single point]	
CN1CCN(c2ncc3nc(-c4cn(C)c5ccccc45)c(=O)n(C)c3n2)CC1	active: 23.1 µM	
CCC1CN(C)C2Cc3c([nH]c4ccccc34)C(=O)CC1C2C(=O)OC (configuration not stated)	active: 23.1 µM	
COc1ccc(-c2nc(CS(=O)CC(=O)NCCc3ccccc3)c(C)o2)cc1OC (configuration not stated)	inconclusive [inhibitor, single point]	
COc1ccccc1/C=c1/[nH]c(=O)/c(=C\c2ccccc2OC)[nH]c1=O	inconclusive [inhibitor, single point]	
Cc1cc(=O)[nH]c(SCC(=O)Nc2cccc(C(F)(F)F)c2)n1	inconclusive [inhibitor, single point]	
CC1=C(C(=O)OCc2ccccc2)N2C(=O)[C@@H](NC(=O)OCc3ccccc3)[C@H]2SC1	inconclusive [inhibitor, single point]	
Cc1c(C(=O)OCC(=O)Nc2cccc(S(N)(=O)=O)c2)oc2c1ccc1ccccc12	inconclusive [inhibitor, single point]	
Cc1noc(C)c1CCC(=O)Nc1cc(C(=O)O)ccc1Cl		inactive: -15.1%
CCOC(=O)c1cc2c(=O)n3ccccc3nc2n(CC(C)C)c1=NC(=O)COc1ccc(Cl)cc1	inconclusive [inhibitor, full curve]	
COc1ccc(CN(C)C[C@@H]2OCCCC[C@H](C)Oc3ccc(NC(=O)Cc4ccccc4)cc3C(=O)N([C@@H](C)CO)C[C@@H]2C)cc1		inactive: 8.23%
O=C(c1ccccc1)N1CCC(O)(c2ccc3c(c2)OCO3)CC1	inconclusive [inhibitor, single point]	
COc1ccc(NC(=O)C/C(C)=N/NC(=O)c2ccncc2)c([N+](=O)[O-])c1		inactive: -13.6%
Cc1ccc(N2CC(C(=O)Nc3nc4ccc(S(C)(=O)=O)cc4s3)CC2=O)cc1 (configuration not stated)		inactive: -13.7%
COc1cc(/C=C2/NC(=O)N(CC(=O)Nc3ccc(C)cc3)C2=O)ccc1Oc1ccc([N+](=O)[O-])cn1		inconclusive: -30.1% [inhibitor]
O=C(Cc1cccs1)N1CCCC(c2nc3c(nnn3Cc3ccccc3Cl)c(=O)[nH]2)C1 (configuration not stated)	inconclusive [inhibitor, single point]	
COc1cccc(C(=O)NCC2(c3ccccc3)CCCC2)c1	inconclusive [inhibitor, partial curve, poor fit]	
